Measured values reported in patent US20260200947A1, “FUSED CYCLIC COMPOUNDS AND USE THEREOF” (Jacobio Pharmaceuticals Co., Ltd., priority 2022, published 2026).

Tests used:
[1] = system: AsPC-1 cells (K-Ras G12D)

For `C#Cc1c(F)ccc2cc(N)cc(-c3nc4c5c(nc(O[C@@H](C)[C@@H]6[C@@H](OC)CCN6C)nc5c3F)N3CCCOC[C@H]3N4C)c12` [Compound 162], which IC50 [1] is on record?
Its IC50 is 538 nM.

What about the IC50 (SW620 cells (K-Ras G12V)) of the same compound?
Its IC50 is 139 nM.
